Measurements taken from patent US20260365731 (published 2026).

Biological target: T1, human VEGFA (human, UniProt P15692)
T1 chain: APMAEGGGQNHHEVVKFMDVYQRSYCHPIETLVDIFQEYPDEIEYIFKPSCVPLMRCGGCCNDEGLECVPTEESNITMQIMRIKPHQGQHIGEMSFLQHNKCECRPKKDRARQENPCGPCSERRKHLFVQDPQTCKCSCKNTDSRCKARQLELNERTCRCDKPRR
Test: SPR

B1: human PD-1 (protein)
chain: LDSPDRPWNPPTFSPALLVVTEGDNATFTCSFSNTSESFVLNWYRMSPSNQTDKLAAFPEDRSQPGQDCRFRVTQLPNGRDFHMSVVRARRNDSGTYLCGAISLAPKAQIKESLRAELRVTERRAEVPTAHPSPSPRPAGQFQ
- binding result: no binding
